According to article PMC6757366:
No constants are given. Whether binding was seen depends on the method and setting. In cells and extracts the contact can be indirect. Some results given as binding are weak or reduced against the parent protein; the word gives no strength. Blank lines part the entries; values can stand above or below the binder they belong to.

How the values were obtained:
CGGBP1 (human) [1] = molecular target: T1, CGGBP1 (human) (UniProt Q9UFW8); assay: co-IP; reciprocal co-IPs of endogenous proteins from HEK-293T cell lysates; Protein G Sepharose, immunoblot
T1 sequence: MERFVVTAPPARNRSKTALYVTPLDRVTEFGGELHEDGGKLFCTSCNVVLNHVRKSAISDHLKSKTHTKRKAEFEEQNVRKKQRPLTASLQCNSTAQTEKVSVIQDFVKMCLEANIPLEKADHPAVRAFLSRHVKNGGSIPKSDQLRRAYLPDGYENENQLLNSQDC

CGGBP1 (human) [2] = molecular target: T1, CGGBP1 (human); assay: co-IP; reciprocal co-IPs of endogenous proteins from lysates of serum-starved human dermal fibroblasts; Protein G Sepharose, immunoblot
CGGBP1 (human) [3] = molecular target: T1, CGGBP1 (human); assay: as above; remark: listed apart in the source
CGGBP1 (human) [4] = molecular target: T1, CGGBP1 (human); assay: co-IP; reciprocal co-IPs of endogenous proteins from lysates of human dermal fibroblasts stimulated after 48 h of serum starvation; Protein G Sepharose, immunoblot
CGGBP1 (human) [5] = molecular target: T1, CGGBP1 (human); assay: co-IP; reciprocal co-IPs of endogenous proteins from cleared, pre-cleared whole cell lysates of human foreskin fibroblasts; Protein G Sepharose, washed four times with PBS, immunoblot
CGGBP1 (human) [6] = molecular target: T1, CGGBP1 (human); assay: co-IP; co-IP from HEK-293T nuclear fraction (REAP protocol); washed beads digested with DNaseI (6 units, 10 min, room temperature), pellet (bead-bound) and supernatant (released) blotted
CTCF (human) [7] = molecular target: T2, CTCF (human) (UniProt P49711); assay: co-IP; reciprocal co-IPs of endogenous proteins from HEK-293T cell lysates; Protein G Sepharose, immunoblot
T2 sequence: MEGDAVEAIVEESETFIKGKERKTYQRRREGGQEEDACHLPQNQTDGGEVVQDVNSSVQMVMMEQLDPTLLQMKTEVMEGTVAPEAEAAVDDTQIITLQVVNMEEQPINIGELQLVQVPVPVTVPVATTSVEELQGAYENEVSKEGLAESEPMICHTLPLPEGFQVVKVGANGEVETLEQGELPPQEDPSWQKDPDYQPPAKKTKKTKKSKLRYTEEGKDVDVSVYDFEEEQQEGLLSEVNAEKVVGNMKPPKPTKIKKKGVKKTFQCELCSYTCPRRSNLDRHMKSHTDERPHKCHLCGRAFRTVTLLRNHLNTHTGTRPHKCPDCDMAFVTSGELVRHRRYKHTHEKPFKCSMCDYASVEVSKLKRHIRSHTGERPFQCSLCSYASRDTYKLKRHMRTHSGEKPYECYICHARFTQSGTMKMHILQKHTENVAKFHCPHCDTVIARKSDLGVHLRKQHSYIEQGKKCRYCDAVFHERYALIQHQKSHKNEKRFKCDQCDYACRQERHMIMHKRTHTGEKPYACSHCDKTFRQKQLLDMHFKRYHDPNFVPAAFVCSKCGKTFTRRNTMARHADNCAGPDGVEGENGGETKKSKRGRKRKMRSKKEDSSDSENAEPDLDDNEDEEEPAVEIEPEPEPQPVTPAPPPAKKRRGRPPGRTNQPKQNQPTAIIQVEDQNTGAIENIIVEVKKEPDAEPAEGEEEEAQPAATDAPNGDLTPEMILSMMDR

CTCF (human) [8] = molecular target: T2, CTCF (human); assay: co-IP; reciprocal co-IPs of endogenous proteins from lysates of serum-starved human dermal fibroblasts; Protein G Sepharose, immunoblot
CTCF (human) [9] = molecular target: T2, CTCF (human); assay: as above; remark: listed apart in the source
CTCF (human) [10] = molecular target: T2, CTCF (human); assay: co-IP; reciprocal co-IPs of endogenous proteins from lysates of human dermal fibroblasts stimulated after 48 h of serum starvation; Protein G Sepharose, immunoblot
CTCF (human) [11] = molecular target: T2, CTCF (human); assay: proximity ligation; Duolink PLA in fixed, permeabilised human juvenile fibroblasts; two different antibody pairs for CTCF and CGGBP1; IgG and no-primary-antibody controls
CTCF (human) [12] = molecular target: T2, CTCF (human); assay: co-IP; reciprocal co-IPs of endogenous proteins from cleared, pre-cleared whole cell lysates of human foreskin fibroblasts; Protein G Sepharose, washed four times with PBS, immunoblot

binding (CGGBP1 (human) [1]): binds
binding (CGGBP1 (human) [2]): binds weakly
binding (CGGBP1 (human) [4]): binds
binding (CGGBP1 (human) [5]): binds
binding (CGGBP1 (human) [6]): binds
B1: CTCF (protein, UniProt P49711 1-727)
chain: T2 sequence
binding (CGGBP1 (human) [3]): no binding (condition: serum-starved cells)

binding (CTCF (human) [7]): binds
binding (CTCF (human) [8]): binds weakly
binding (CTCF (human) [10]): binds weakly
binding (CTCF (human) [11]): binds
binding (CTCF (human) [12]): binds
B2: CGGBP1 (protein, UniProt Q9UFW8 1-167)
chain: T1 sequence
binding (CTCF (human) [9]): no binding (condition: serum-starved cells)
